Measurements taken from PubChem BioAssay AID504832 (National Center for Advancing Translational Sciences (NCATS), 2011).
The campaign covered roughly 310,000 compounds. About 18,000 (5.8%) were called active. Inconclusive results, whose numbers are uncertain, are shown with a selection of clear calls. Calls come from the whole dose curve; as a rule, active = well fitted inhibition curve with a large enough effect; inconclusive = small, poorly fitted or top-dose-only effect, or another doubt; inactive = no such curve, though single readings can be large or run the other way. No potency is given beside an inconclusive call; the fits are too rough.
% is set by controls: 0 for no effect and ±100 for the full control effect; potency is the fitted concentration of half-maximal effect; tags give direction and shape of the fitted curve.

Assay: Primary qHTS for delayed death inhibitors of the malarial parasite plastid, 48 hour incubation
Conditions: P. falciparum luciferase growth in erythrocytes; series mostly up to 28.7 µM; activity change, negative = inhibition: at the top concentration
Summary of the method: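 Luminescence readout; reporter = integrated firefly luciferase in P. falciparum. RBC culture at 2% hematocrit, 0.1% parasitemia final, 37 C/5% CO2; decreased signal taken as growth inhibition.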
In the case of `O=S1(=O)N=C(N2CCOCC2)c2ccccc21`, the “activity change, negative = inhibition” value is reported as inactive: 13.9%. With `O=C(Nc1ccc(Cl)cc1C(=O)Nc1ccc(Br)cn1)c1ccco1` the Potency was inconclusive [inhibitor, single point]. For `N#CC(C#N)=NNc1ccc(-n2ccc(C(F)(F)F)n2)cc1`, the Potency was inconclusive [inhibitor, partial curve]. For `COc1ccc(-c2cc(=O)oc3c(C)c(O)c(CN(C)C)cc23)cc1`, the Potency was inconclusive [inhibitor, partial curve]. With `COc1ccc(O)c(CN2CCN(CCCc3ccccc3)C(CCO)C2)c1` (configuration not stated) the Potency was inconclusive [inhibitor, single point]. For `COc1cc(/C=C2\S/C(=N/S(=O)(=O)Cc3ccccc3)NC2=O)c([N+](=O)[O-])cc1OC`, the Potency was inconclusive [inhibitor, single point]. In the case of `CCOc1ccc(N(C(=O)c2snc(C(N)=O)c2N)C(C)C(=O)NC2CCCCC2)cc1` (configuration not stated), the Potency is reported as inconclusive [inhibitor, partial curve, poor fit]. With `CC(=O)c1ccc(OCC(=O)N(CCC2=CCCCC2)c2c(N)n(Cc3ccccc3)c(=O)[nH]c2=O)cc1` the Potency was inconclusive [inhibitor, single point]. With `CN(C)S(=O)(=O)c1cccc(-c2nnc(SCc3cc(Cl)cc4c3OCOC4)n2N)c1` the Potency was inconclusive [inhibitor, partial curve, poor fit]. With `O=C(CN1CCOCC1)Nc1cc(Cl)ccc1Cl` the “activity change, negative = inhibition” value was inactive: 12.8%. In the case of `CC(=O)Nc1ccc(S(=O)(=O)Nc2ccc(=O)n(Cc3ccc(Cl)c(Cl)c3)c2)cc1`, the Potency is reported as inconclusive [inhibitor, partial curve, poor fit]. In the case of `CC(C)CN(C(=O)c1ccc(N2CCCC2=O)cc1)C1CCS(=O)(=O)C1` (configuration not stated), the Potency is reported as inconclusive [inhibitor, single point]. For `CCc1ccccc1NC(=O)c1ccc(-n2c(C)ccc2C)cc1`, the Potency was inconclusive [inhibitor, partial curve]. For `CCC12C(=O)C(CC)(C(c3ccccc3)=C1c1ccccc1)[C@@H]1C(=O)N(c3ccc(C)cc3)C(=O)C12` (some centres not stated), the Potency was inconclusive [inhibitor, single point]. With `Cc1ccc(-n2c(C)cc(C(=O)OCC(=O)N(C)C3CCS(=O)(=O)C3)c2C)cc1` (configuration not stated) the Potency was active: 1.65 µM. For `CC(=O)N1CCN(c2ccc(NC(=O)c3cc4ccccc4o3)cc2)CC1`, the Potency was inconclusive [inhibitor, single point]. In the case of `Cc1cccc(OCC(=O)N2CCN(C(=O)c3ccc([N+](=O)[O-])cc3)CC2)c1`, the “activity change, negative = inhibition” value is reported as inactive: 8.26%.
